We go through 57 sequences from the supplement of paper PMC11417369.

± gives the standard deviation of the averaged measurements. Some of the results follow.

For the experiment, the system named is PfAP2-EXP AP2 domain (GST-tagged). Put plainly: gcPBM binding intensity (ln(normalized median fluorescence intensity)); higher = stronger DNA binding. In short, it runs like this:
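GST-tagged P. falciparum DNA-binding domains produced in E. coli were incubated for 1 h on an Agilent 4 × 180k array of primer-extended double-stranded 36-bp intergenic genomic probes with negative controls. Binding intensity is the highest Masliner-normalised natural-log median intensity across replicate spots of either probe orientation, with bound protein detected by Alexa488 anti-GST antibody at 488 nm.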
“TTAAGAATATTTTCATGTACTCATTTTTTTTGTTAT [XGTACX_site1814]”: the “gcPBM binding intensity (ln)” value was 8.58 ± 0.3.

Take “ATTGTAATAAATTGTAGTACATGTAAGGTTTTATTT [XGTACX_site1005]”: the “gcPBM binding intensity (ln)” value was 8.71 ± 0.29.

With “ATAACTTATTTTTAAAGTACATTATTATATATATAT [XGTACX_site1620]”, the “gcPBM binding intensity (ln)” value came out at 9.54 ± 0.26.

“ATTACATATGTGAGTTGTACTATAAATATATAATAT [XGTACX_site3718]”: the “gcPBM binding intensity (ln)” value came out at 8.88 ± 0.5.

On to “TTTTTGATATTAAAGGGTACATTATTTACAAAAAAA [XGTACX_site5284]”, for which the “gcPBM binding intensity (ln)” value was 8.29 ± 0.34.

On to “AAAACAAACATTACACGTACAAAACAAGTTATAGAC [XGTACX_site6320]”, for which the “gcPBM binding intensity (ln)” value turned out to be 8.91 ± 0.38.

For the sequence “ATTCTTTTATTTAGTAGTACATTTGTATTTTATTCA [XGTACX_site5790]”, the “gcPBM binding intensity (ln)” value is 8.85 ± 0.42.

On to “GATCCTGGTTCTTGTGGTACTTGTTCATTTGTTATA [XGTACX_site7164]”, for which the “gcPBM binding intensity (ln)” value amounted to 8.91 ± 0.52.

For “CTGCCTTCCATACCCACACACTTCCCATATATTTTA [CACACA_site5491]”, the “gcPBM binding intensity (ln)” value was 9.16 ± 0.47.

For “ATGCTTTTTTATAAAAGTACATAAAGTTTTTACACT [XGTACX_site7307]”, the “gcPBM binding intensity (ln)” value amounted to 8.44 ± 0.21.

As for “TTTTTTATTGTGAAACTGATATTATATTTTTTATAA [GTGCAC_negctrl_site559]”, the “gcPBM binding intensity (ln)” value amounted to 8.13 ± 0.3.

For “TAAACATTTTTAATTTTGTAAAATTTTAAATAAAAA [XGTACX_negctrl_site612]”, the “gcPBM binding intensity (ln)” value was 8.06 ± 0.38.

On to “TGAATATTTTATGATTGTACATATTATAATAAACAT [XGTACX_site6113]”, for which the “gcPBM binding intensity (ln)” value was determined as 8.45 ± 0.34.

As for “ACAAACAAAGAAAGAACACACATACACAAGATACCT [CACACA_site7353]”, the “gcPBM binding intensity (ln)” value stood at 8.68 ± 0.66.

Regarding “AATATTTTAATGCACACACACAAAAAAAAAAAAAAA [CACACA_site7374]”, the “gcPBM binding intensity (ln)” value is 8.54 ± 0.4.

Consider “AATCCTTTACGACACACACACAAAAAAAAAAAAAAA [CACACA_site6449]”, for which the “gcPBM binding intensity (ln)” value was 8.23 ± 0.35.

Regarding “TGTTGGCAGGTGAATGCATGCATATAAGTCTATCTG [TGCATGCA_site781]”, the “gcPBM binding intensity (ln)” value came to 9.95 ± 0.39.

Turning to “CACCCTTTACACAAGGTGCATACTTTATTATATTTT [GTGCAC_site9778]”, the “gcPBM binding intensity (ln)” value was 8.875 ± 0.049.

As to “TTTTTCTTTCTTTCTTTTTTAATATTACAAATGTAT [XGTACX_negctrl_site267]”, the “gcPBM binding intensity (ln)” value worked out at 8.72 ± 0.65.

In the case of “TTATTAAAACAAAATGTACACACATATAATTTAATG [CACACA_site8193]”, the “gcPBM binding intensity (ln)” value is 8.38 ± 0.3.

Turning to “TTCAATGCATGTCCATGTACATATAAAAAAAAATAC [XGTACX_site1597]”, the “gcPBM binding intensity (ln)” value came out at 8.93 ± 0.34.

Turning to “AAAGTAGAATATCCCCTACACACCCAAATAATTTAC [CACACA_site1255]”, the “gcPBM binding intensity (ln)” value turned out to be 9.37 ± 0.79.

With “TCCACAAAGCATGTAACACACAACATATAAGACATA [CACACA_site972]”, the “gcPBM binding intensity (ln)” value was 8.78 ± 0.46.

Turning to “ACATCATAGAAAAATTGATATATATATATATATATA [CACACA_negctrl_site130]”, the “gcPBM binding intensity (ln)” value turned out to be 10 ± 0.53.

For “AACCACATACCTATAACACACATATACAATATAGAT [CACACA_site7023]”, the “gcPBM binding intensity (ln)” value is 8.59 ± 0.49.

In the case of “TATTAAAAAGAGGTGACACACACATATAAATCTAAA [CACACA_site9243]”, the “gcPBM binding intensity (ln)” value worked out at 8.57 ± 0.47.

As to “TTAAAAAAATTAATATGTACATATATTTATATATAT [XGTACX_site5317]”, the “gcPBM binding intensity (ln)” value was 8.41 ± 0.2.

Turning to “TATATATTTTATTTATGTACGAAAATAAATTAAATT [XGTACX_site3628]”, the “gcPBM binding intensity (ln)” value was determined as 8.27 ± 0.38.

“TCCATTGTCACCTTTTGTACTTAAATTTTTTCCTCC [XGTACX_site1573]”: the “gcPBM binding intensity (ln)” value stood at 9.05 ± 0.52.

As to “CTTTTTTTTTTTTTTTGTCCGTATGAGGGACCTATA [XGTACX_site8839]”, the “gcPBM binding intensity (ln)” value was 8.45 ± 0.28.

As for “ATAAAAAAATCAGACACACACACGTAAACACATACA [CACACA_site5529]”, the “gcPBM binding intensity (ln)” value stood at 8.76 ± 0.57.

“CAAAAATTACCCTTGTGTACACATATATTATATGTA [XGTACX_site1124]”: the “gcPBM binding intensity (ln)” value amounted to 8.69 ± 0.18.

Take “TGAGATAAATGTGGTAGTACATTTTTTTTATATATA [XGTACX_site1918]”: the “gcPBM binding intensity (ln)” value was found to be 8.2 ± 0.26.

With “ATATCATCTTCTCTATCATTTTTTTTTTTTTTTTTT [CACACA_negctrl_site1220]”, the “gcPBM binding intensity (ln)” value is 8.72 ± 0.4.

For “TTAATTATGTTTTGGTGTACAATAAATTGAATAGAT [XGTACX_site3306]”, the “gcPBM binding intensity (ln)” value was found to be 8.55 ± 0.31.

For “CTACTTAATATTTGTACACACATATTTAACCTACTA [CACACA_site5725]”, the “gcPBM binding intensity (ln)” value is 8.76 ± 0.33.

With “ATATATATTTATATATGTACATATTTTTGTGTATTT [XGTACX_site1183]”, the “gcPBM binding intensity (ln)” value amounted to 8.55 ± 0.43.

In the case of ATGTTATAATTTAGTGTGCACATATTAAGAGGAACA, the “gcPBM binding intensity (ln)” value was found to be 9.24 ± 0.23.

As to “AATAATAATAGAAACACACACACATTTTTAATAATA [CACACA_site1217]”, the “gcPBM binding intensity (ln)” value worked out at 8.55 ± 0.49.

Regarding “ATATATATATATATATGTACATAATAATTTTATAAA [XGTACX_site5105]”, the “gcPBM binding intensity (ln)” value is 10.2 ± 0.33.

Take AAAATAATTTTATAGTTGCACTATATCGTATACAAT: the “gcPBM binding intensity (ln)” value came out at 8.72 ± 0.26.

Consider “ATATATTTTATACATACACACATATATATATTTTTT [CACACA_site3940]”, for which the “gcPBM binding intensity (ln)” value came out at 8.66 ± 0.33.

Consider “TGATTAAATCAAGAAAGTACAAAATGAAATATATAA [XGTACX_site4319]”, for which the “gcPBM binding intensity (ln)” value was 8.84 ± 0.45.

Regarding “TAAAGTGTAAAATTCACACACATATAAATAAATATA [CACACA_site6765]”, the “gcPBM binding intensity (ln)” value worked out at 8.44 ± 0.54.

As for “TTTAAAAAAAAAAATACACACATAAAAGTTTTCAAA [CACACA_site6471]”, the “gcPBM binding intensity (ln)” value is 8.29 ± 0.45.

For “TACAAAAGCTATAACATTCACCACATTATAAAAATA [CACACA_negctrl_site1112]”, the “gcPBM binding intensity (ln)” value is 8.29 ± 0.4.

Consider “TTACAAATATTATAATGTACCCATTTTTTTTGCCTT [XGTACX_site6612]”, for which the “gcPBM binding intensity (ln)” value was determined as 8.47 ± 0.39.

For “TTTTCATTAAGATACTTATAATAGTTTATTAGTAAA [CACACA_negctrl_site586]”, the “gcPBM binding intensity (ln)” value amounted to 7.92 ± 0.33.

In the case of “AAAATATATAAATATACATGCATAATTAATAGTATA [TGCATGCA_site804]”, the “gcPBM binding intensity (ln)” value stood at 8.66 ± 0.39.

As to “AATTCAAAGAAAAACTGTACGTGTAGCAAACATCCT [XGTACX_site599]”, the “gcPBM binding intensity (ln)” value is 8.66 ± 0.47.

In the case of “TAATATGAAGATGGCAGTACTCTAGTCAATTTTTAC [XGTACX_site5375]”, the “gcPBM binding intensity (ln)” value was 8.53 ± 0.38.

With “TTTTTAAAAATATACACACACAGATATTATATATAT [CACACA_site786]”, the “gcPBM binding intensity (ln)” value is 8.73 ± 0.13.

As for “ATATATGTTCCTTTTACACACATAATCTTTTTTTTA [CACACA_site2661]”, the “gcPBM binding intensity (ln)” value was determined as 8.91 ± 0.42.

Turning to “AAAATATAATATAATGCACACATAAAAAAAAAAAAA [CACACA_site7989]”, the “gcPBM binding intensity (ln)” value was determined as 8.52 ± 0.49.

Regarding “ATATTGTGTTATAAATGTACACAATTTCCTTTCATA [XGTACX_site7481]”, the “gcPBM binding intensity (ln)” value turned out to be 8.48 ± 0.22.

For the sequence “GGGGACGCGGGTGGGGGTACTCACACTATGCAAAAT [XGTACX_site7745]”, the “gcPBM binding intensity (ln)” value came out at 10.3 ± 0.4.

On to “ATATATATATGTATGTATATATATATATATGTTTGA [GTGCAC_negctrl_site561]”, for which the “gcPBM binding intensity (ln)” value came to 9.465 ± 0.078.
